What all share (assay): AUC
Data set [1] concerns the molecule itself.
Data set [2] deals with the molecule itself. The source holds these as a separate data set.
Data set [3] concerns the molecule itself. This is another data set of the same source.

For 21 proteins, Kd results are on record in publication PMC4030788 (Biochemistry, 2014).

“And” between values parts separate entries of the source, which are not always exact repeats. Equal values may be shown once. Read-outs that look alike come from different tables or passages of the source.

B1: SecA Δ2–9 (natural protein)
chain: not shown
By Kd is commonly meant the free concentration of one partner at which half of the binding sites on the other are occupied at equilibrium, for simple one-to-one binding. A higher Kd goes with lower affinity. B1 returned a dissociation constant (Kd) in the data set “AUC [1]” of 17.1 ± 1.2 µM.

B2: SecA Δ2–10 (natural protein)
chain: not shown
In the data set “AUC [1]”, B2 came in with a Kd of 97.5 ± 18.7 µM.

B3: SecA K800 single-alanine substitution mutant (natural protein)
chain: not shown
For the protein B3, the Kd in “AUC [2]” amounted to 3.2 ± 0.3 µM.

B4: SecA L815 single-alanine substitution mutant (natural protein)
chain: not shown
Take B4: in “AUC [2]”, binding was put at a Kd of 2.2 ± 0.03 µM.

B5: SecA F811 single-alanine substitution mutant (natural protein)
chain: not shown
Regarding B5, binding in the data set “AUC [2]” was characterised by a dissociation constant (Kd) of 2.3 ± 0.1 µM.

B6: SecA D568A (natural protein)
chain: not shown
The protein B6 returned a Kd in “AUC [2]” of 4.8 ± 0.8 µM.

B7: SecA R342 single-alanine substitution mutant (natural protein)
chain: not shown
B7 displayed a Kd in “AUC [2]” of 3.7 ± 0.2 µM.

B8: SecA Δ2–8 (natural protein)
chain: not shown
As for B8, in “AUC [1]”, the dissociation constant Kd turned out to be 20.3 ± 1 µM.

B9: SecA E802 single-alanine substitution mutant (natural protein)
chain: not shown
With B9, the equilibrium dissociation constant (Kd) in “AUC [2]” is 3.3 ± 0.3 µM.

B10: SecA L818 single-alanine substitution mutant (natural protein)
chain: not shown
In the data set “AUC [2]”, B10 registered a Kd of 3.4 ± 0.1 µM.

B11: SecA K8A (natural protein)
chain: not shown
In the data set “AUC [2]”, B11 gave a Kd of 8.6 ± 0.5 µM.

B12: SecA D640 single-alanine substitution mutant (natural protein)
chain: not shown
Turning to B12, in “AUC [2]”, the affinity, expressed as Kd, was 1.6 ± 0.01 µM.

B13: SecA K633 single-alanine substitution mutant (natural protein)
chain: not shown
In turn, B13 yielded a Kd in “AUC [2]” of 3.6 ± 0.1 µM. Compared with the last protein, the Kd is about 2.2-fold higher.

B14: SecA L2A/I3A/L5A/L6A (natural protein)
chain: not shown
For B14, the Kd in the data set “AUC [1]” came to 62 ± 7 µM.

B15: SecA E635A (natural protein)
chain: not shown
In the case of B15, in the data set “AUC [2]”, the Kd turned out to be 2.3 ± 0.8 µM.

B16: SecA Q801A (natural protein)
chain: not shown
Turning to B16, the Kd in “AUC [2]” was found to be 2.6 ± 0.3 µM.

B17: SecA K625A (natural protein)
chain: not shown
In the data set “AUC [2]”, B17 displayed a dissociation constant Kd of 2.7 ± 2.4 µM.

B18: SecA N629A (natural protein)
chain: not shown
B18: in “AUC [2]”, the equilibrium dissociation constant (Kd) was 2.3 ± 0.4 µM.

B19: SecA E665A (natural protein)
chain: not shown
In the case of B19, the Kd in the data set “AUC [3]” is 12.6 µM and 12.8 µM; in “AUC [2]”, 12.7 ± 0.3 µM.

B20: SecA Q662A (natural protein)
chain: not shown
With B20, binding in “AUC [2]” was put at a Kd of 0.1 ± 0.01 µM.

B21: SecA K4Q/K8Q (natural protein)
chain: not shown
In the case of B21, in the data set “AUC [1]”, the Kd amounted to 9.2 ± 0.7 µM.
